# Some of the results follow.
# Columns and labels:
# Assay in all cases: glycan array binding signal (z-score within array); higher = stronger binding
# Details in all cases: glycan notation: IUPAC condensed, linker removed
# [1] = target: Neu5Ac(a2-8)Neu5Ac
# Outline: (§1)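 Columns mapping to the same glycan were averaged after glycan names were converted to IUPAC-condensed notation. The data come from 3228 arrays in the Consortium for Functional Glycomics database, limited to those with an available protein sequence. Binding is reported as a within-array Z-score averaged across arrays of one protein sequence and across linkers.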
# [2] = target: Neu5Ac(a2-8)Neu5Ac(a2-3)Gal(b1-3)GalNAc(b1-4)[Neu5Ac(a2-3)]Gal(b1-4)Glc
# Outline: as §1
# [3] = target: Neu5Ac(a2-8)Neu5Ac(a2-3)Gal(b1-3)GalNAc(b1-4)[Neu5Ac(a2-8)Neu5Ac(a2-3)]Gal(b1-4)Glc
# Outline: as §1
# [4] = target: Neu5Ac(a2-8)Neu5Ac(a2-3)Gal(b1-4)Glc
# Outline: as §1
# [5] = target: Neu5Ac(a2-8)Neu5Ac(a2-3)Gal(b1-4)GlcNAc
# Outline: as §1
# [6] = target: Neu5Ac(a2-8)Neu5Ac(a2-3)[Gal(b1-3)GalNAc(b1-4)]Gal(b1-4)Glc
# Outline: as §1
# [7] = target: Neu5Ac(a2-8)Neu5Ac(a2-3)[GalNAc(b1-4)]Gal(b1-4)Glc
# Outline: as §1
# [8] = target: Neu5Ac(a2-8)Neu5Ac(a2-8)Neu5Ac
# Outline: as §1
# [9] = target: Neu5Ac(a2-8)Neu5Ac(a2-8)Neu5Ac(a2-3)Gal(b1-4)Glc
# Outline: as §1
# [10] = target: Neu5Ac(a2-8)Neu5Ac(a2-8)Neu5Ac(a2-3)[Gal(b1-3)GalNAc(b1-4)]Gal(b1-4)Glc
# Outline: as §1
# [11] = target: Neu5Ac(a2-8)Neu5Ac(a2-8)Neu5Ac(a2-3)[GalNAc(b1-4)]Gal(b1-4)Glc
# Outline: as §1
# [12] = target: Neu5Ac(a2-8)Neu5Ac(a2-8)Neu5Ac(a2-8)Neu5Ac(a2-3)[GalNAc(b1-4)]Gal(b1-4)Glc
# Outline: as §1
# [13] = target: Neu5Ac(a2-8)Neu5Gc(a2-3)Gal(b1-4)GlcNAc
# Outline: as §1
# [14] = target: Neu5Ac(b2-6)Gal(b1-4)GlcNAc
# Outline: as §1
# [15] = target: Neu5Ac(b2-6)GalNAc
# Outline: as §1
# [16] = target: Neu5Ac9Ac(a2-3)Gal(b1-3)GlcNAc
# Outline: as §1
# [17] = target: Neu5Ac9Ac(a2-3)Gal(b1-4)GlcNAc
# Outline: as §1
# [18] = target: Neu5Ac9Ac(a2-6)Gal(b1-4)GlcNAc
# Outline: as §1
# [19] = target: Neu5Gc(a2-3)Gal(b1-3)GlcNAc
# Outline: as §1
# [20] = target: Neu5Gc(a2-3)Gal(b1-3)[Fuc(a1-4)]GlcNAc
# Outline: as §1
# [21] = target: Neu5Gc(a2-3)Gal(b1-4)Glc
# Outline: as §1
# [22] = target: Neu5Gc(a2-3)Gal(b1-4)GlcNAc
# Outline: as §1
# [23] = target: Neu5Gc(a2-3)Gal(b1-4)GlcNAc(b1-3)Gal(b1-4)GlcNAc(b1-2)Man(a1-3)[Neu5Gc(a2-3)Gal(b1-4)GlcNAc(b1-3)Gal(b1-4)GlcNAc(b1-2)Man(a1-6)]Man(b1-4)GlcNAc(b1-4)GlcNAc
# Outline: as §1
# [24] = target: Neu5Gc(a2-3)Gal(b1-4)[Fuc(a1-3)]GlcNAc
# Outline: as §1
# [25] = target: Neu5Gc(a2-6)Gal(b1-4)GlcNAc
# Outline: as §1
# [26] = target: Neu5Gc(a2-6)GalNAc
# Outline: as §1
# [27] = target: Neu5Gc(a2-8)Neu5Ac(a2-3)Gal(b1-4)GlcNAc
# Outline: as §1
# [28] = target: Neu5Gc(a2-8)Neu5Gc(a2-3)Gal(b1-4)GlcNAc
# Outline: as §1
# [29] = target: Neu5Gc(a2-8)Neu5Gc(a2-3)Gal(b1-4)GlcNAc(b1-3)Gal(b1-4)GlcNAc
# Outline: as §1
# [30] = target: Neu5Gc(a2-8)Neu5Gc(a2-6)Gal(b1-4)GlcNAc
# Outline: as §1
binder,measurement,setting,value
"Pa IMPa (Pseudomonas aeruginosa), Q9I5W4 (protein) MSLSTTAFPSLQGENMSRSPIPRHRALLAGFCLAGALSAQAATQEEILDAALVSGDSSQLTDSHLVALRLQQQVERIRQTRTQLLDGLYQNLSQAYDPGAASMWVLPANPDNTLPFLIGDKGRVLASLSLEAGGRGLAYGTNVLTQLSGTNAAHAPLLKRAVQWLVNGDPGAATAKDFKVSVVGVDKTAALNGLKSAGLQPADAACNALTDASCASTSKLLVLGNGASAASLSATVRARLQAGLPILFVHTNGWNQSSTGQQILAGLGLQEGPYGGNYWDKDRVPSSRTRTRSVELGGAYGQDPALVQQIVDGSWRTDYDWSKCTSYVGRTTCDDVPGLSDFSKRVDVLKGALDAYNQKAQNLFALPGTTSLRLWLLWADAVRQNIRYPMDKAADTARFQETFVADAIVGYVREAGAAQKELGSYAGQRQQSMPVSGSEETLTLTLPSAQGFTAIGRMAAPGKRLSIRIEDAGQASLAVGLNTQRIGSTRLWNTRQYDRPRFLKSPDIKLQANQSVALVSPYGGLLQLVYSGATPGQTVTVKVTGAASQPFLDIQPGEDSSQAIADFIQALDADKADWLEIRSGSVEVHAKVEKVRGSIDKDYGGDVQRFIRELNEVFIDDAYTLAGFAIPNQAKTPAIQQECAARGWDCDSETLHKLPGTQHINVDQYAQCGGGCSGNPYDQTWGLNPRGWGESHELGHNLQVNRLKVYGGRSGEISNQIFPLHKDWRVLREFGQNLDDTRVNYRNAYNLIVAGRAEADPLAGVYKRLWEDPGTYALNGERMAFYTQWVHYWADLKNDPLQGWDIWTLLYLHQRQVDKSDWDANKAALGYGTYAQRPGNSGDASSTDGNDNLLLGLSWLTQRDQRPTFALWGIRTSAAAQAQVAAYGFAEQPAFFYANNRTNEYSTVKLLDMSQGSPAWPFP",glycan array binding signal (z-score),[1],-0.29
same,glycan array binding signal (z-score),[2],0.063
same,glycan array binding signal (z-score),[3],-0.376
same,glycan array binding signal (z-score),[4],-0.299
same,glycan array binding signal (z-score),[5],0.147
same,glycan array binding signal (z-score),[6],-0.007
same,glycan array binding signal (z-score),[7],-0.029
same,glycan array binding signal (z-score),[8],-0.349
same,glycan array binding signal (z-score),[9],0.097
same,glycan array binding signal (z-score),[10],-0.171
same,glycan array binding signal (z-score),[11],-0.558
same,glycan array binding signal (z-score),[12],0.058
same,glycan array binding signal (z-score),[13],-0.539
same,glycan array binding signal (z-score),[14],-0.034
same,glycan array binding signal (z-score),[15],0.41
same,glycan array binding signal (z-score),[16],-0.161
same,glycan array binding signal (z-score),[17],0.471
same,glycan array binding signal (z-score),[18],-0.52
same,glycan array binding signal (z-score),[19],0.464
same,glycan array binding signal (z-score),[20],-0.162
same,glycan array binding signal (z-score),[21],-0.256
same,glycan array binding signal (z-score),[22],-0.067
same,glycan array binding signal (z-score),[23],0.178
same,glycan array binding signal (z-score),[24],0.877
same,glycan array binding signal (z-score),[25],0.106
same,glycan array binding signal (z-score),[26],-0.317
same,glycan array binding signal (z-score),[27],-0.076
same,glycan array binding signal (z-score),[28],-0.213
same,glycan array binding signal (z-score),[29],-0.217
same,glycan array binding signal (z-score),[30],0.724

# Reference: the supplement of paper PMC8728848
